Assay results taken from PubChem BioAssay AID1508642 (National Center for Advancing Translational Sciences (NCATS), 2021).
Screen size: about 43,000 compounds; about 200 (0.47%) were called active. About 12% were inconclusive and are not listed. Calls follow the shape of the dose curve; as a rule, active = well fitted cell-killing curve with a large enough effect; inconclusive = small, poorly fitted or top-dose-only effect, or effect the other way; inactive = flat fitted curve, though single readings scatter. The list shows a part of the results.

Assay: Cell viability qHTS assay in S16 Pmp22-F2sN cells; also: nearly all actives have a fitted effect of over 65% in size
Conditions: S16 Pmp22-F2sN Schwann cells viability, CellTiter-Glo, 24 h; series mostly up to 57.5 µM; activity change, negative = cytotoxicity: at the top concentration
Summary of the method: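 Used to flag compounds lowering reporter output through toxicity, this quantitative HTS measures ATP-based CellTiter-Glo luminescence in S16 Pmp22-F2sN Schwann cells after 24 h compound exposure at 37C.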
% is scaled to controls: 0 for no effect and ±100 for the full control effect.

Structure (SMILES) | activity change, negative = cytotoxicity
Cc1cc(C)cc(Nc2nc3cc(Cl)c(Cl)cc3nc2-n2nc(C)cc2C)c1 | inactive: 3.55%
CC(C)CCn1c(SCc2cccc(F)c2)nc2ccsc2c1=O | inactive: 1.65%
CN1C(=O)C2(c3ccccc31)N(c1ccc(Br)cc1)C(=O)CS2(=O)=O (configuration not stated) | inactive: -2.47%
O=c1[nH]c(C2CCCN(S(=O)(=O)c3ccccc3)C2)nc2c1nnn2Cc1ccc(OC(F)(F)F)cc1 (configuration not stated) | inactive: -0.193%
Cc1cc(C)cc(C(=O)n2nc(C)c(S(=O)(=O)N3CCOCC3)c2C)c1 | inactive: -11.8%
O=C(CSc1ncc2c(n1)-c1ccccc1N(Cc1ccc(F)cc1)S2(=O)=O)NCCc1ccccc1 | inactive: 3.79%
C#CC(C)(CC)NC(=O)Cn1nnc(-c2ccc(OCc3c(F)cccc3Cl)cc2)n1 (configuration not stated) | inactive: -14.7%
COc1cc(NC(=O)CN(c2cc(C)cc(C)c2)S(=O)(=O)c2c(C)[nH]c(=O)[nH]c2=O)cc(OC)c1 | inactive: 5.42%
Cc1cn2c(=O)cc(COc3ccc(NC(=O)COc4ccccc4)cc3)nc2s1 | inactive: 11.5%
CCOc1ccc(-c2nc3ccccc3c(=O)o2)cc1 | inactive: 2.23%
CCOC(=O)c1c(NC(=O)c2ccc(F)cc2)sc2c1CCC(CC)C2 (configuration not stated) | inactive: -13%
Cc1ccc(Nc2cc(C)nc3nncn23)c(C)c1 | inactive: -9.7%
CCOC(=O)c1cccc(NC(=O)[C@H](CSCc2ccccc2)N2Cc3ccccc3C2=O)c1 | inactive: 13%
CCCCNC(=O)CSc1nc2cc3c(cc2c(=O)n1CCCCCC(=O)NCc1ccc(OC)cc1)OCO3 | inactive: 4.12%
COc1ccc(CNC(=O)c2cnc3sc(N4CCCC4)nn3c2=O)c(OC)c1 | inactive: 2.64%
CCc1ccc(Nc2nnc(-n3nc(C)cc3C)c3ccccc23)cc1 | inactive: -0.109%
COc1ccc(C2CC(=O)N(CC(=O)Nc3ccc(C)c(Cl)c3)c3ccccc3S2)cc1OC (configuration not stated) | inactive: -0.468%
CCOC(=O)C1CCCN(S(=O)(=O)c2ccc3c(c2)oc(=O)n3C)C1 (configuration not stated) | inactive: -8.62%
COc1ccc(N(Cc2cccs2)C(=O)Nc2cccc(Cl)c2)cc1 | inactive: -12.3%
Cc1ccccc1NC(=O)CCN1C(=O)c2ccccc2Sc2ncccc21 | inactive: 3.65%
COc1cccc(NC(=O)CCc2c(C)nc3ncnn3c2C)c1 | inactive: 6.85%

Structure (SMILES) | activity change, negative = cytotoxicity
Cc1ccccc1C(=O)NCCc1sc(-c2ccc(Cl)cc2)nc1C | inactive: 13.2%
COc1ccc(CNC(=O)Cc2csc3nc(-c4ccc(F)cc4)cn23)cc1 | inactive: -1.87%
CCCc1cnc2c(c1SCc1cccc(F)c1)c(=O)n(C)c(=O)n2C | inactive: 6.24%
CCCc1noc(-c2ccc(NCc3ccc(C)cc3)c([N+](=O)[O-])c2)n1 | inactive: 2.83%
COc1ccc(-c2cn3c(n2)sc2cc(C(=O)NCc4cccc(F)c4)ccc23)cc1 | inactive: 10.2%
Cc1ccc(NC(=O)Cn2c(=O)n(Cc3ccc4c(c3)OCO4)c(=O)c3ccccc32)cc1 | inactive: 23.4%
Cc1ccccc1-c1cc2nccc(-c3cc(Cl)ccc3O)n2n1 | inactive: -5.09%
Cc1ccc(NC(=O)CN2C(=O)COc3ccc(S(=O)(=O)NC4CCCC4)cc32)c(Cl)c1 | inactive: -1.03%
Cc1nc(C)c(CCNS(=O)(=O)c2ccc(F)cc2)s1 | inactive: 2.39%
COc1ccccc1CN1CCNC(=O)C1=O | inactive: 17.6%
COc1ccc(N(Cc2nnc3n2CCCCC3)C(=O)Nc2cccc(C)c2)cc1Cl | inactive: 8%
O=C(Cn1ncc2c3ccccc3n(Cc3ccccc3)c2c1=O)NC1CCCCCC1 | inactive: 14.9%
COc1ccc(-c2coc3c2c(C)cc2oc(=O)c(CC(=O)O)c(C)c23)cc1 | inactive: -19.1%
COc1ccccc1NC(=O)Cn1c(=O)n(-c2cccc(C)c2)c(=O)c2c1c1cc(C)ccc1n2C | inactive: 18%
COc1ccc(NC(=O)C(CC(C)C)NC(=O)C2CCCCC2)cc1 (configuration not stated) | inactive: -1.57%
COc1cc2c(cc1OC)C(COc1ccc(F)cc1)N(C(=O)c1cccc(F)c1)CC2 (configuration not stated) | inactive: -1.45%
CN(C)CCCNC(=O)C(=O)NCC(c1ccc2c(c1)OCO2)N1CCOCC1 (configuration not stated) | inactive: 3.3%
Cc1nc2nc(SCC(=O)Nc3ccccc3Cl)nn2c(C)c1Cc1ccccc1 | inactive: 6.88%
O=C(c1ccc(Br)cc1)N(Cc1cccs1)c1ccc(F)cc1 | inactive: 20.7%
CN1CCN(C(=O)Cn2ncc3c4ccccc4n(Cc4ccc(F)cc4)c3c2=O)CC1 | inactive: -0.197%
Cc1cc(C)c(S(=O)(=O)Nc2ccc3oc4c(c3c2)C(=O)CC(C)(C)C4)cc1C | inactive: 2.38%

Structure (SMILES) | activity change, negative = cytotoxicity
COc1ccc(-c2cnc(C)o2)cc1S(=O)(=O)Nc1ccc(F)cc1F | inactive: -0.656%
COc1cc(OC)c(NC(=O)c2cn(C3CCCC3)c(=O)c3c2c2ccccc2n3C)cc1Cl | inactive: 16.5%
COc1cccc(C(=O)Nc2ccccc2OCc2cc(=O)n3ccccc3n2)c1 | inactive: 6.44%
Cc1cc(N(CCO)Cc2ccccc2)n2nc(-c3ccc(C(C)(C)C)cc3)nc2n1 | inactive: -6.01%
Cc1cccn2c(=O)c(/C=C(\C#N)c3nc4ccccc4s3)c(Oc3ccc(F)cc3)nc12 | inactive: -6.17%
CCOCCn1ccc2c(OCC(=O)Nc3cccc([N+](=O)[O-])c3)cccc2c1=O | inactive: 2.62%
CCOc1cc(CNC(=O)C(NS(=O)(=O)c2cccs2)C(C)C)cc(OCC)c1OCC (configuration not stated) | inactive: 3.49%
O=C(Cn1c(SCc2cccc(F)c2)nc2ccncc21)Nc1ccc(Cl)cc1F | inactive: -11.1%
COc1ccc(NCc2cccn2-c2nnc(N3CCOCC3)s2)c(OC)c1 | inactive: 2.57%
O=C(NNc1ncnc2c1cnn2-c1ccccc1)c1ccccc1 | inactive: -6.66%
COCCNC(=O)Cn1c(=O)n(-c2ccc(C)c(C)c2)c(=O)c2c3c(sc21)CCCCC3 | inactive: 8.98%
CCOC(=O)c1cccc(NC(=O)C2CCN(c3nnc(C)c4c(C)n(-c5ccccc5)nc34)CC2)c1 | inactive: 18.9%
COc1ccc(NC(=O)CN2CCN(S(=O)(=O)c3ccc(Br)cc3)CC2)cc1 | inactive: 0.974%
COc1ccc(Cl)cc1NC(=O)C(C)N1Cc2ccccc2C1=O (configuration not stated) | inactive: 2.8%
Cc1ccc(C(CC(=O)Nc2ccc(C)cc2C)N2Cc3ccccc3C2=O)cc1 (configuration not stated) | inactive: -18.8%
CCOC(=O)c1c(NC(C)=O)c2c3c(sc2n1Cc1cccc(Cl)c1)CCCC3 | inactive: 17.9%
COc1ccc(C(=O)Nc2ccc3nc(N4CCCCC4)cc(C)c3c2)c(OC)c1 | inactive: 2.39%
Cc1cn2c(=O)cc(COc3cccc(NC(=O)c4cccc(F)c4)c3)nc2s1 | inactive: 9.74%
COc1ccc(N2CCN(S(=O)(=O)CCNC(=O)Cc3ccc(-c4ccccc4)cc3)CC2)cc1 | inactive: 10.6%
CCOC(=O)c1c(-c2ccccc2)csc1NC(=O)c1cc(-c2cccc(OC)c2)on1 | inactive: 9.06%
